# Measurements: paper PMC4336329 (PLoS ONE, 2015)
# About 2,200 (0.71%) of roughly 310,000 compounds showed an effect of 50% or more. The effect is printed as a negative number. The list shows a part of the results.
# Target: human ether-à-go-go-related gene (hERG) potassium channel (human, UniProt Q12809)
# Assay: primary screen, population patch clamp on CHO cells stably expressing hERG
# human ether-à-go-go-related gene (hERG) potassium channel, sequence (Q12809 whole entry, looked up): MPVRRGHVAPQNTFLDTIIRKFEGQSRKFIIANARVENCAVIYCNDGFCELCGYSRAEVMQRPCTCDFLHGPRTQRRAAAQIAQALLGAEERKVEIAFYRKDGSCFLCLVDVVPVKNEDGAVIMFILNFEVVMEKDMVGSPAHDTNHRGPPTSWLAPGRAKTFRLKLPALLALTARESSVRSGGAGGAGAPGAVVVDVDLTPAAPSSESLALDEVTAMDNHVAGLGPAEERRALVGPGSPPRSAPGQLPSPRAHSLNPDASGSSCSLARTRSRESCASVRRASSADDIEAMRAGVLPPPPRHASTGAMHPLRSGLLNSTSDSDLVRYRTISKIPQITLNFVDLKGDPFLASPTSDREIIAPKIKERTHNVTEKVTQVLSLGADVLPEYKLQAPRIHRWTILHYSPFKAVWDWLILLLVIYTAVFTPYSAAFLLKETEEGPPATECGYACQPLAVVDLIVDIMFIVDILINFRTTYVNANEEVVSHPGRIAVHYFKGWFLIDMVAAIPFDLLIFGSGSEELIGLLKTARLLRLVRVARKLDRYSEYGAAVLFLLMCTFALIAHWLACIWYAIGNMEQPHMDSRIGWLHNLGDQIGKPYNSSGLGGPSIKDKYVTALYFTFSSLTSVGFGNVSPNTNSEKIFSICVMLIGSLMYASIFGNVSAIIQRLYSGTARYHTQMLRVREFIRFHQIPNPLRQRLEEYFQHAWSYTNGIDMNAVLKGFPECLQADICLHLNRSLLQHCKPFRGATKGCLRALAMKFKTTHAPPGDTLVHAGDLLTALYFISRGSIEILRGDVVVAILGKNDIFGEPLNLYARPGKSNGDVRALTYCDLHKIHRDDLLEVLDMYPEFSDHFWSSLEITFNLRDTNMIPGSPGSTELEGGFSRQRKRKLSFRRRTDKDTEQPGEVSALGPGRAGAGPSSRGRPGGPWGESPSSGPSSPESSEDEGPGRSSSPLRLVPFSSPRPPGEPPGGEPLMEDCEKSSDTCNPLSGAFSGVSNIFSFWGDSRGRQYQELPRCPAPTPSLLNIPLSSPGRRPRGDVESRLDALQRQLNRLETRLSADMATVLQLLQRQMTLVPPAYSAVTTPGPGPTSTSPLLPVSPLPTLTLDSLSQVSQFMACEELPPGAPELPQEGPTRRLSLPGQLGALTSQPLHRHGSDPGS
row,Compound,"hERG current change (%, negative = inhibition) at 1uM [%]"
1,CCOC(=O)C1(Cc2ccccc2C)CCCN(C(=O)c2ccoc2)C1 (stereo not drawn),-8.32
2,O=C(NC(=S)Nc1cc(C(F)(F)F)ccc1N1CCOCC1)c1sc2ccccc2c1Cl,6.08
3,Cc1cc(N2CCCCC2)nc2ccc(NC(=O)c3ccc(Br)o3)cc12,5.31
4,CCN(c1ccc(OC)cc1)S(=O)(=O)N1CCCC(C(=O)NCc2cccc(C)c2)C1 (stereo not drawn),21.6
5,Fc1ccc(Nc2cccc3nccnc23)cc1,-0.473
6,CCn1cc(C(=O)Nc2ccc(NC(=O)c3ccco3)cc2)c(=O)c2ccc(C)nc21,-2.53
7,COc1ccc(NC(=O)N2CC(C)OC(C)C2)cc1OC (stereo not drawn),9.39
8,COc1ccccc1C(=O)OCCNC(=O)Cn1cnc2c1c(=O)n(C)c(=O)n2C,17.9
9,CCOc1ccc(NC(=O)c2csc3c2CCCC3)cc1,8.02
10,Cc1ccccc1-n1ccnc1SCC(=O)NCc1ccco1,3.13
11,Cc1ccc(NC(=O)CN(C(=O)N2CCN(C)CC2)S(=O)(=O)c2ccc(C)cc2)cc1,-2.04
12,COc1ccc(CNc2ccc(Br)cc2)cc1,9.54
13,Cc1nc2ccccc2nc1N1CCCC1,1.6
14,O=c1cc(CSc2nc3cc(Cl)ccc3o2)nc2sccn12,15.3
15,CN(C)C(=O)N=NC(=O)N(C)C,10.6
16,O=c1cc(C23CC4CC(CC(C4)C2)C3)[nH][nH]1,7.14
17,Cc1cnc(NCCc2ccccc2)s1,17.8
18,O=C(CN1C(=O)NC2(CCCC2)C1=O)Nc1ccccc1N1CCCCC1,12.9
19,CCCCOc1ccc(/C=N/NC(=O)C2CCCNC2=O)cc1 (stereo not drawn),8.65
20,CCc1nc(NCCN)c(C#N)c2c1CSC(C)(C)C2,6.83
21,COc1ccc(Nc2oc(-c3ccc(F)cc3)nc2C#N)cc1,12.2
22,CC(=O)Nc1ccc(/C=N/NC(=O)CNS(=O)(=O)c2ccccc2)cc1,11
23,CCc1cc(=O)oc2cc(C)cc(OCc3nn[nH]n3)c12,2.42

row,Compound,"hERG current change (%, negative = inhibition) at 1uM [%]"
1,C=Cc1ccc(C(=O)NC2CCCN(Cc3ccccc3F)C2)cc1 (stereo not drawn),11.6
2,CCc1cc2c(=O)n(Cc3ccco3)c(SCc3c(C)noc3C)nc2s1,1.03
3,O=C(N/C(=C\c1ccc(Cl)cc1)C(=O)N1CCOCC1)c1ccco1,-2.55
4,O=C(/C=C/NNC(=O)c1ccccc1O)c1ccccc1,7.98
5,COCCSc1ccccc1C(=O)NCc1ccc(S(N)(=O)=O)cc1,-0.445
6,CCOC(=O)C1(CCOc2ccccc2)CCN(Cc2cccc(OCCO)c2)CC1,-84.4
7,O=C(CCN1C(=O)COc2ccccc21)NCCCN1CCN(c2ccccc2F)CC1,-24.7
8,CC(=O)Nc1ccc2ccc3cccc4ccc1c2c34,6.56
9,Cc1ccccc1Cn1ccc(NC(=O)c2cc3nc(-c4ccco4)cc(C(F)(F)F)n3n2)n1,14
10,CCOc1ccc(Cl)cc1CNCCCSc1nc(C)cc(C)n1.Cl,-14.8
11,CCn1cc([N+](=O)[O-])c(C(=O)N2N=C(c3ccccc3)CC2c2ccc([N+](=O)[O-])cc2)n1 (stereo not drawn),2.85
12,Cc1cccc(-n2nnc(C(=O)NCc3ccco3)c2N)c1,9.15
13,O=[N+]([O-])c1ccc(N2CCCC2)nc1,13.1
14,COc1cc(Cl)c(C)cc1NC(=O)CN1CCN(C(=O)C2CC2)CC1,-33.9
15,COc1ccc(CN2CSC(=S)N(Cc3ccccc3)C2)cc1,11.8
16,C/C(=C\C(=O)c1ccc(Br)cc1)NCc1ccccc1,18.5
17,O=C(Nc1ccc2c(c1)OCO2)c1cnn2cccnc12,8.33
18,CCc1ccc(C2C(=O)c3ccccc3C2=O)cc1,12.4
19,CCOC(=O)CSCC(NC(=O)OC(C)(C)C)C(=O)OCC (stereo not drawn),7.77
20,O=C(O)c1ccc(NC(=O)c2ccccc2NC(=O)c2cccc(F)c2)cc1,16.6
21,C=CCN(c1ccccc1Cl)S(=O)(=O)c1cc(C(=O)N2CCCC2)ccc1Cl,9.06
22,COCc1cccc(C2=CC(=O)C[C@H](c3ccc(OC)cc3)C2)c1,12.5
23,COc1ccc(NC(C)=O)cc1S(=O)(=O)Nc1ccccc1C(=O)NCCc1ccccc1,12

row,Compound,"hERG current change (%, negative = inhibition) at 1uM [%]"
1,O=C(CCc1nc(-c2ccccc2)no1)NC1CCCCC1,0.0707
2,COc1ccc(CN2CCCC(C(=O)c3ccc(Cl)cc3)C2)cc1Cn1cncn1 (stereo not drawn),-59.9
3,Cc1ccc(S(=O)(=O)NCCCC(=O)C=[N+]=[N-])cc1,10.1
4,CC1CCc2sc(NC(=S)NC(=O)c3ccccc3)c(C#N)c2C1 (stereo not drawn),-5.64
5,O=C(CSc1n[nH]c(-c2ccccc2)n1)N1CCOCC1,14.7
6,Cc1csc(NC(=O)c2oc3ccccc3c2C)n1,13.2
7,Cc1ccc(C)c(N(C)C(=O)c2cc3c(=O)[nH]c4ccc(C)cc4c3s2)c1,4.33
8,COc1ccc(N2CCN(C(=O)CCCN3C(=O)c4cccc5cccc(c45)C3=O)CC2)cc1,20.3
9,COc1ccc(NC(=O)CSc2nc(NS(=O)(=O)c3ccc(C)cc3)cc(=O)[nH]2)cc1,9.68
10,Cn1c(C(=O)NCc2ccccc2)cc2oc3ccccc3c21,7.9
11,CCc1nc2ccccc2c(=O)n1-c1ccc2ccccc2c1,0.76
12,COc1ccc(NC(=O)CSc2nnc(-c3ccccc3F)n2C2CC2)cc1S(N)(=O)=O,12.4
13,Cc1cc(C)n(C(=O)Cn2nc([N+](=O)[O-])c(Br)c2C)n1,9.42
14,CC(C)N1CCC(N2CCN(Cc3ccc(-c4ccccc4Cl)o3)CC2CCO)CC1 (stereo not drawn),-26.4
15,CC(=O)Nc1ccc(C(=O)OCC(=O)NC2CCCCCCC2)cc1,14.1
16,Cc1cccn2c(=O)c(C(=O)NC3CCCCC3)c(O)nc12,42.3
17,OCCC1CN(Cc2ccc(Oc3ncccn3)cc2)CCN1C1CCCCC1 (stereo not drawn),9.05
18,Cc1cc(C)cc(NC(=O)Nc2ccc3c(c2)CCC3)c1,16
19,O=C(NCC1CCCO1)c1cccc(S(=O)(=O)NCc2ccccc2)c1 (stereo not drawn),7.67
20,O=C(CN1CCN(C(=O)COc2cccc(F)c2)CC1)Nc1ccc(Cl)c(C(F)(F)F)c1,2.21
21,Cc1nn(C)c(C(=O)Nc2ccn(C34CC5CC(CC(C5)C3)C4)n2)c1[N+](=O)[O-],3.27
22,CC(C(=O)OCC(=O)c1ccccc1)N1C(=O)c2ccccc2C1=O (stereo not drawn),8.42
23,NC(=O)CC1Nc2cccc3cccc(c23)NC1=O (stereo not drawn),5.48

row,Compound,"hERG current change (%, negative = inhibition) at 1uM [%]"
1,Cc1ccccc1OCC1Cn2c(nc3c2c(=O)[nH]c(=O)n3C)O1 (stereo not drawn),-7.23
2,O=C1C=CC(=O)N1c1ccc(OC(F)F)cc1,5.49
3,O=C(CN1CCN(c2ccc(O)cc2)CC1)Nc1cc([N+](=O)[O-])ccc1Cl,11.3
4,Cc1ccc(S(=O)(=O)NCC(=O)OCc2cc(=O)oc3c(C)c(C)ccc23)cc1C,-10.9
5,CCN(CC)C(=O)Oc1ccc(Cl)c2cccnc12,12.2
6,COc1ccc(NC(=O)c2nc[nH]c2C(=O)NCC(=O)OC(C)(C)C)cc1,4.71
7,COc1cccc(-n2cc(CNCc3c(C(=O)N(C)C)nc4ccc(Cl)cn34)cn2)c1,3.35
8,O=C1c2ccc(-c3ccc(F)cc3OCc3ccccc3)cc2S(=O)(=O)c2cccc(C(=O)N3CCCC3)c21,10.9
9,Cc1ccc(C(=O)CNc2ccc(Br)cc2)cc1,11.3
10,Cc1cc(C#N)c(C)n1-c1cc(S(=O)(=O)N2CCOCC2)ccc1N1CCCC1,5.78
11,CCn1c(SCc2nc3ccccc3c(=O)[nH]2)nc2ccccc21,-3.29
12,COc1ccc(C(=O)Nc2ccccc2Cc2ccccc2)c(OC)c1,11.3
13,Cc1ccccc1OCCn1cc(C(=O)O)c2ccccc21,10.3
14,COC(=O)Cn1ncn2c(cc3oc(C)cc32)c1=O,11.9
15,CCOC(=O)CN(C(=O)CNC(=O)c1ccco1)C(C(=O)NC1CCCC1)c1ccccc1OCC (stereo not drawn),16.9
16,COc1ccc(CCNS(=O)(=O)CCNC(=O)c2ccc3c(c2)OCO3)cc1OC,10.4
17,COc1ccc(NC(=O)NCCCN2CCc3ccccc3C2)cc1,-69.5
18,COc1cc(NS(=O)(=O)c2ccc(NC(=O)/C=C/c3ccc([N+](=O)[O-])cc3)cc2)ncn1,14.4
19,COc1ccc(C(=O)O)c(O)c1,-0.854
20,CCOC(=O)c1c(NC(=S)N2CCN(C)CC2)sc2c1CCN(C(=O)OCC)C2,11.9
21,COc1cccc(-c2nn(-c3ccccc3)cc2C(=O)Nc2nccs2)c1,10
